Measured values taken from PubChem BioAssay AID1745853 (National Center for Advancing Translational Sciences (NCATS), 2022).
The other results are listed elsewhere or left out. Further columns of the screen follow, without active or inactive calls.

What was measured:
Experiment in all cases: Primary Screen for Target Class Profiling of Small Molecule Inhibitors of Methyltransferases
[1] = biological target: Glycine N-methyltransferase (Homo sapiens) (UniProt Q14749); conditions: purified enzyme, MTase-Glo SAH luminescence; measured here: GNMT inhibition; at 40 µM; stronger effect = lower value
Description: (§1) PI: Matthew D. Hall Ph.D. and Quinlin M. Hanson Ph.D.
(§2) National Center for Advancing Translational Sciences (NCATS)
(§3) National Institute of Health (NIH), Rockville, MD
(§4) Target class profiling (TCP) is a chemical biology approach amenable to investigating understudied biological targets. TCP is achieved by developing a generalizable assay platform and applying it to screen a curated set of compound libraries against representative members of a target class. Small molecule methyltransferases (SMMTase) are a subclass of methyltransferase that act on metabolites to modulate signaling pathways, metabolize xenobiotics, or balance the available methyl pool. We screened four curated libraries totaling 27,574 unique compounds against the SMMTases nicotinamide N-methyltransferase (NNMT), phenylethanolamine N-methyltransferase (PNMT), histamine N-methyltransferase (HNMT), glycine N-methyltransferase (GNMT), catechol O-methyltransferase (COMT), and guanidinoacetate N-methyltransferase (GAMT). The data generated by this TCP can be leveraged for informed tool molecule development. For example, in the associated publication we identified a chemotype of HNMT-selective inhibitors. Additionally, we identified a putative SMMTase-selective inhibitor with potential as a tool molecule for studying broader methyltransferase biology.
(§5) High-through put screening assays were developed at the National Center for Advancing Translational Science (NCATS) for the enzymes NNMT, PNMT, HNMT, GNMT, COMT, and GAMT. Enzymatic activity was measured as a function of SAM cofactor conversion using the MTase Glo kit (Promega) for all enzymes. All assays were performed in 1536-well format with substrates and SAM concentrations at KM values. Enzyme concentration and assay timing were optimized for 10-20% SAM conversion. Initial screening of 27,574 compounds was done as single-point assays using the highest compound concentration (40 uM). […] These compounds were replated in 11-point dose response and assayed against NNMT, PNMT, HNMT, GNMT, COMT, GAMT, and a counter-assay. The IC50 and efficacy (maximal response) values were determined for each dose-response curve. These values are also accounted for in the area under the curve (AUC) values.
(§6) PROTOCOL TABLE (as described by Inglese J, Shamu CE and Guy RK. 2007)
(§7) SEQUENCE No. (e.g., 1, 2, 3, etc.); […] (e.g., Cells, Incubation, Reagent, etc.); VALUE; DESCRIPTION.
(§8) 1; Reagent; 2 uL; SMMTase Enzyme (2x) in reaction buffer, columns 1- 48.
(§9) 2; Reagent; 1 uL; SAM (4x) in reaction buffer, columns 1-48.
(§10) 3; Controls; 23 nL; DMSO in column 4; sinefungin in DMSO (0 uM - 40 uM) in 7-point 1:2 dilution series (n = 2) in column 2.
(§11) 4; Compounds; 23 nL; Columns 5-48.
(§12) 5; Reagent; 1 uL; Substrate (4x) in reaction buffer, columns 2-48.
(§13) 6; Time; 20-30 min; Incubation.
(§14) 7; Reagent; 1 uL; MTase-Glo reagent (5X), columns 1-48.
(§15) 8; Time; 30 min; Incubation.
(§16) 9; Reagent; 5 uL; MTase-Glo Detection reagent, columns 1-48.
(§17) 10; Time; 30 min; Incubation, luminescence evolution.
(§18) 11; Detection; Luminescence; ViewLux uHTS Microplate Imager (PerkinElmer).
(§19) NOTES (numbers refer to Sequence numbers above)
(§20) 1, 2, 5. White Medium Binding Greiner 1536-well plates (Cat #789175-F, Greiner Bio-One, Monroe, NC); Reaction buffer: 50 mM Tris, pH 8.0, 3 mM MgCl2, 1 mM EDTA, 50 mM NaCl, 1 mM DTT, and 0.1 mg/mL BSA. Evaporation was prevented by covering assay plates with metal lids containing holes to allow gas diffusion.
(§21) 1. Six SMMTase were profiled: HNMT, GNMT, PNMT, COMT, NNMT, GAMT
(§22) 5. The corresponding substrate was used for each enzyme: HNMT - 5.3 uM Histamine; GNMT - >500 uM Glycine; PNMT - 16.2 uM Norephinephrine; COMT - 13.7 uM Norephinephrine; NNMT - 3.8 uM Nicotinamide; GAMT - 2.5 uM Guanidinoacetate.6, 8, 10. Room temperature
(§23) 6. Final reaction conditions: 10 nM COMT, 5 uM SAM, 15 uM norepinephrine, 50 mM Tris, pH 8.0, 3 mM MgCl2, 1 mM EDTA, 50 mM NaCl, 1 mM DTT, and 0.1 mg/mL BSA; refer to tables 2 and S1 for specific timing.
8. […]

[2] = biological target: Histamine N-methyltransferase (Homo sapiens) (UniProt P50135); conditions: purified enzyme, MTase-Glo SAH luminescence; measured here: HNMT inhibition; at 40 µM; stronger effect = lower value
Description: as §1, §2, §3, §4, §5, §6, §7, §8, §9, §10, §11, §12, §13, §14, §15, §16, §17, §18, §19, §20, §21, §22, §23
8. […]

[3] = biological target: Guanidinoacetate N-methyltransferase (Homo sapiens) (UniProt Q14353); conditions: purified enzyme, MTase-Glo SAH luminescence; measured here: GAMT inhibition; at 40 µM; stronger effect = lower value
Description: as §1, §2, §3, §4, §5, §6, §7, §8, §9, §10, §11, §12, §13, §14, §15, §16, §17, §18, §19, §20, §21, §22, §23
8. […]

[4] = biological target: Nicotinamide N-methyltransferase (Homo sapiens) (UniProt P40261); conditions: purified enzyme, MTase-Glo SAH luminescence; measured here: NNMT inhibition; at 40 µM; stronger effect = lower value
Description: as §1, §2, §3, §4, §5, §6, §7, §8, §9, §10, §11, §12, §13, §14, §15, §16, §17, §18, §19, §20, §21, §22, §23
8. […]

[5] = biological target: Phenylethanolamine N-methyltransferase (Homo sapiens) (UniProt P11086); conditions: purified enzyme, MTase-Glo SAH luminescence; measured here: PNMT inhibition; at 40 µM; stronger effect = lower value
Description: as §1, §2, §3, §4, §5, §6, §7, §8, §9, §10, §11, §12, §13, §14, §15, §16, §17, §18, §19, §20, §21, §22, §23
8. […]
On the % scale 0 is the no-effect control and ±100 the full control effect.

Structure (SMILES)	activity change, negative = inhibition [1] [%]	activity change, negative = inhibition [2] [%]	activity change, negative = inhibition [3] [%]	activity change, negative = inhibition [4] [%]	activity change, negative = inhibition [5] [%]
OCC(Cc1ccccc1)Nc1nc(Oc2ccc3c(c2)CCC3)nc2c1ncn2Cc1ccc(-c2ccccc2)cc1 (configuration not stated)	2	5.33			
COc1ccccc1CNC(=O)c1cc2c(N3CCSCC3)nc(C)cn2n1	-8.34	-18.8	-2.04	-9.19	7.54
COC(=O)c1ncn2c1C(=O)N(c1ccc(C(C)C)cc1)C(C)(C(=O)NC1CCCCC1)C2 (configuration not stated)	-1.23	0.786	-0.398	3.27	-0.365
CC(C)OCCCN1C(=O)c2cc3ccccc3n2CC1(C)C(=O)NC1CCCCCC1 (configuration not stated)	3.02	4.27	2.19	-14	-1.62
CCCn1c(=O)c2cc(Cl)ccc2n2c(SCC(=O)Nc3ccc4c(c3)OCO4)nnc12	2.98	12.7	0	10.9	6.63
CC1(C(=O)NCc2ccccc2)Cn2c(cc3ccccc32)C(=O)N1CCc1ccc(Cl)cc1 (configuration not stated)	-10.8	-0.956	1.4	1.21	-5.14
CC1CCCC(NC(=O)C2(C)Cn3c(cc4sccc43)C(=O)N2Cc2cccc(Cl)c2)C1C (configuration not stated)	-1.45	3.3	2.98	2.75	0.737
O=C(c1ccc(F)cc1Cl)N1CCN(C(=O)c2nnn3c2COC(c2ccccc2)C3)CC1 (configuration not stated)	-6	-2.83	-7.66	-4.29	-5.87
CC1(C(=O)O)CCN(C(=O)c2cccc(Cl)c2)CC1	-2.99	-1.3	0.455	-4.82	0.442
O=C(Nc1ccccc1)c1ccc(Nc2nnc(-c3ccc(O)cc3)c3ccccc23)cc1	-3.73	3.52	-28.7	-38	-18
COc1cccc(N2C(=O)c3cc(C(C)(C)C)nn3CC2(C)C(=O)NCc2ccccc2)c1 (configuration not stated)	-2.45	-0.932	0.554	0.276	-0.12
CNc1nccnc1-c1cccc(CN2CCOCC2)c1	-2.06	1.22	1.98	4.71	6.88
Cc1c(Cl)cccc1NC(=O)N1CCn2c(C)ccc2C1C(C)C (configuration not stated)	10.6	0.742	0	-6.22	-1.37
Cc1nc2cc(-c3cc(F)cc(C#N)c3)ccc2s1	-7.91	3.62	-5.81	-19.9	-2.87
CC1(C(=O)NCc2ccccc2)Cn2c(cc3ccccc32)C(=O)N1Cc1cccc(F)c1 (configuration not stated)	-3.67	-1.52	2.94	-7.16	-3.85
C[C@H](Nc1ncnc2nc[nH]c12)c1cc2ccc(F)cc2nc1-c1ccccn1	2.95	4.05	3.93	-8.97	4.52
CC1CCN(CC2CCCCCN2C(=O)CC2CCCC2)CC1 (configuration not stated)	-1.06	0.918	-0.353	-3.72	-1.01
CCCCN1CCN(C(=O)C2(c3ccc(NS(C)(=O)=O)cc3)CCCCC2)CC1	-3.37	-2.56	-7.21	-3.68	-1.22
CCCCN1C(=O)c2cc(C(=O)NCc3ccc(Cl)cc3)nn2CC1(C)C(=O)NC1CCCC1 (configuration not stated)	2.32	3.26	2.48	-2.84	1.4
CC1CCC(NC(=O)C2(C)Cn3c(nc4ccccc43)C(=O)N2Cc2ccc(F)cc2)CC1 (configuration not stated)	-9.06	-1.76	-8.54	-17.3	-7.09
CC1(C(=O)NC2CCCCC2)Cn2c(ccc2-c2ccco2)C(=O)N1Cc1ccccc1 (configuration not stated)	-8.38	5.26	-2.96	-11.5	-3.11
COc1cccc2c1OCC(NS(=O)(=O)c1ccc(Cl)cc1)C2 (configuration not stated)	-8.01	2.69	4.99	5.11	1.99
CCOc1ccccc1NC(=O)N1Cc2c(sc3c2CCCC3)-n2cccc2C1c1ccccc1 (configuration not stated)	-1.02	1.93	0	1.44	4.11
C[C@]1(CO)[C@H]2Cc3sc(NC(=O)c4ccco4)nc3[C@@H](CC(=O)NC3CCCC3)[C@]2(C)CC[C@H]1O	-4.19	-0.826	-2.21	-5.87	-0.044
CN(C)CCC(=O)N1Cc2ccccc2CC2(CCCN2Cc2cccnc2)C1 (configuration not stated)	-4.12	-4.23	0.212	-3.87	-8.34
COc1cccc(CNC(=O)c2cn3cc(-c4cccc(OC)c4)sc3n2)c1	-9.97	-3.33	-6.1	-13	-2.15
CC(CNC(=O)c1cc2n(n1)CC(C)(C(=O)NC1CCCCC1)N(C)C2=O)c1ccccc1 (configuration not stated)	8.26	5.43	1.31	11	3.85
CC(C)NC(=O)c1ccc2c(=O)n(C(C)C)c3nn(CC(=O)Nc4ccc(Cl)cc4)c(=O)n3c2c1	8.26	10.9	3.5	0.247	6.88
CCC(C)NC(=O)c1ccc2c(=O)n(C)c3nnc(SCC(=O)c4ccc(F)cc4)n3c2c1 (configuration not stated)	12.9	10.3	0	13.5	12.4
COc1ccc(-c2nnc(-c3ccc(OC)c(S(=O)(=O)N4CCOCC4)c3)o2)cc1OC	-1.68	13.6	2.52	2.28	10.1
